Measurements reported in article PMC7506554.
No constants are given. Whether binding was seen depends on the method and setting. Binding seen in cells or lysates may run through a third protein. Some binding calls cover weakened binding; strength is not graded here. Sequences can lack the tags named with a protein.

The chains behind the UniProt entries cited, without tags or fusion partners.
UniProt P63096: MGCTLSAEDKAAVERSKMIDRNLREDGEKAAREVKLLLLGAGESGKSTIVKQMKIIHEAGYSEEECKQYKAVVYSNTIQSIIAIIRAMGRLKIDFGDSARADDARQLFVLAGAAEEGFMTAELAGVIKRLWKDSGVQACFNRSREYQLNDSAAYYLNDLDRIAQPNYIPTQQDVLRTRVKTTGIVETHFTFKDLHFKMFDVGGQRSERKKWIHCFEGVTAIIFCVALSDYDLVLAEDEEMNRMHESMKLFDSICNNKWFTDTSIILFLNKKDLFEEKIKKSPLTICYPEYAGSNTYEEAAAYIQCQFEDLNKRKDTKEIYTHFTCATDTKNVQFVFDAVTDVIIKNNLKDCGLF
UniProt P50148: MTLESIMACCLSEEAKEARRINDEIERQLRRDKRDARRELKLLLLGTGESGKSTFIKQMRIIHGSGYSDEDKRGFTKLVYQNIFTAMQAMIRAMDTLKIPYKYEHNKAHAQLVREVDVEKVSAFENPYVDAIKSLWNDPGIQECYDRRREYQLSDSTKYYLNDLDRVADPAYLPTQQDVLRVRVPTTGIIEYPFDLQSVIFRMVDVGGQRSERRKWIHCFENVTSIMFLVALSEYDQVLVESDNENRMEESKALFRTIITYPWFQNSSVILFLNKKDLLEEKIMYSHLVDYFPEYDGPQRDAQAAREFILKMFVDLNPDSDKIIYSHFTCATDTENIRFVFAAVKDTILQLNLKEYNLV
UniProt P29992: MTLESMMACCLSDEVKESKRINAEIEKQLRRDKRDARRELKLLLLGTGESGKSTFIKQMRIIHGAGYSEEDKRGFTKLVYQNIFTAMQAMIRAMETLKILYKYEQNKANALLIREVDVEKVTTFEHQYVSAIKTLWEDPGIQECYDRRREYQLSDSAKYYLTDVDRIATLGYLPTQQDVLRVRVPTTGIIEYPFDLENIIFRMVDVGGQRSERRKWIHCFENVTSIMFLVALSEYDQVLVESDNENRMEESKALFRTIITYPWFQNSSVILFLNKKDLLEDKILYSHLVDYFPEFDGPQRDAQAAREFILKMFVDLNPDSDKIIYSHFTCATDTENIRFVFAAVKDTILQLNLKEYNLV
UniProt Q03113: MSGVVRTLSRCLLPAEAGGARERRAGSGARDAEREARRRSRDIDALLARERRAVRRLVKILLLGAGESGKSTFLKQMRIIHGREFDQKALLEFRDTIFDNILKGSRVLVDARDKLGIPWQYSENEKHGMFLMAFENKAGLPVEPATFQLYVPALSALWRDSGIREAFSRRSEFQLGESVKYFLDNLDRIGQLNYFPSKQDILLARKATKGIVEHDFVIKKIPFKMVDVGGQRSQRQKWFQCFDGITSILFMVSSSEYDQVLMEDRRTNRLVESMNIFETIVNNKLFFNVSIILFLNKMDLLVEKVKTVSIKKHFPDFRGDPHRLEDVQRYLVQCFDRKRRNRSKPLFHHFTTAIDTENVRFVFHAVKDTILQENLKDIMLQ
UniProt Q14344: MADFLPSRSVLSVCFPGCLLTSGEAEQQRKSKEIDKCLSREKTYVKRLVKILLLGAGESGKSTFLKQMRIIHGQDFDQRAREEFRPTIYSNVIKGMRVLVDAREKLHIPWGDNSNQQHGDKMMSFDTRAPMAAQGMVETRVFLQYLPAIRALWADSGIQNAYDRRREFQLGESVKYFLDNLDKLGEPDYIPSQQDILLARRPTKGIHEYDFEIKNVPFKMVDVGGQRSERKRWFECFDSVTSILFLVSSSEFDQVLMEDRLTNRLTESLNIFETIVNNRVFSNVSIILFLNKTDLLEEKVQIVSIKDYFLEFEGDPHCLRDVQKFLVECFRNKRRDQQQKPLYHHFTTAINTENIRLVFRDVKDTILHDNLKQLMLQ

target: T1, FLAG-GPR101 (human G-protein coupled receptor 101) (human) (UniProt Q96P66); assay: co-IP; HEK293 cells co-transfected with FLAG-GPR101 and HA-tagged Gα protein, serum starved overnight; lysis in 20 mM Tris-HCl pH 7.5, 100 mM NaCl, 10 mM MgCl2, 2 mM EDTA, 1% Triton-X100; 900 µg lysate precipitated with mouse anti-FLAG antibody and Protein A/G PLUS-Agarose at 4 °C; washed with PBS, 1% NP-40; blot with anti-HA antibody
T1 sequence: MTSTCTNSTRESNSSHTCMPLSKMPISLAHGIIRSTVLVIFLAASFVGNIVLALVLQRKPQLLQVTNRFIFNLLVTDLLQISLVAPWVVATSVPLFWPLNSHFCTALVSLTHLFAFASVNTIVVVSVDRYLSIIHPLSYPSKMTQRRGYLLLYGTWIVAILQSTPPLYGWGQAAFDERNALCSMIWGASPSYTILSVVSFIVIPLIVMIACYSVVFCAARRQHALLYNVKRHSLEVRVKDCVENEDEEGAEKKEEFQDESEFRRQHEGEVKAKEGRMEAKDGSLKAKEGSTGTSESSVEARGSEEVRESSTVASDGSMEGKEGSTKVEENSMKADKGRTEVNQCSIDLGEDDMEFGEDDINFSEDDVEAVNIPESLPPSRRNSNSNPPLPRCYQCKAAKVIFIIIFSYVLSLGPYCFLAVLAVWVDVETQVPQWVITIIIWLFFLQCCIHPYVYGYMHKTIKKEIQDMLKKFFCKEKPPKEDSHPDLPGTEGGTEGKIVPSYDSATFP

Row | binding | Substance
1 | no binding | HA-tagged Gαi1 (from UniProt P63096 1-354)
2 | binds | HA-tagged Gαq (from UniProt P50148 1-359)

More lines, now with the values behind:

Row | Substance | binding
3 | HA-tagged Gα11 (from UniProt P29992 1-359) | binds
4 | HA-tagged Gα12 (from UniProt Q03113 1-381) | binds
5 | HA-tagged Gα13 (from UniProt Q14344 1-377) | binds
